# Test results as given in the supplement of paper PMC7826260.
# Some of the results follow. Viral Rep nickase domains cut single-stranded DNA in vitro for 1 h at 37 °C with 3 µM enzyme; only the middle of the 90-letter strands is printed. Uncut reads are compared with the no-enzyme pool on a log2 scale; the lower, the more was cut; hits are not called. Counts are relative to all reads; where an enzyme cuts many sequences, the uncut ones exceed 0.
# Experiments:
# Assay in all cases: uncleaved DNA left, log2 of reads against the no-enzyme library (log2 ratio); higher = less cleavage (more negative = more Rep cleavage of the k-mer); sequences stand for … in CTCGTCCG…ACCGGAGA
# [1] = system: T1, Rep nickase domain of Muscovy duck circovirus
# T1 sequence (Rep 1-111, printed without the tag): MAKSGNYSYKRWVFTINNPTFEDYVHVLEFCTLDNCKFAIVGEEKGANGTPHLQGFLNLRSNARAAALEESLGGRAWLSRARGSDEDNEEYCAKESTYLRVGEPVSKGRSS
# Method: (§1)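 A pool of 90-nt single-stranded DNAs with seven random bases just before the constant AC of the nick site (name = the seven bases) was cut by 3 µM recombinant His6-SUMO-tagged Rep nickase domain (300 nM DNA, 50 mM HEPES pH 8.0, 50 mM NaCl, 1 mM MnCl2, 1 h, 37 °C, three replicates). Uncut DNA was amplified and sequenced.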
# [2] = system: T2, Rep nickase domain of banana bunchy top virus
# T2 sequence (Rep 1-94, printed without the tag): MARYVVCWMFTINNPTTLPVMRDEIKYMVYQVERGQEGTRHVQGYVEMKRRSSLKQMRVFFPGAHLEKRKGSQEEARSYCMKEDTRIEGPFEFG
# Method: as §1
# [3] = system: T3, Rep nickase domain of cabbage leaf curl virus
# T3 sequence (Rep 1-116, printed without the tag): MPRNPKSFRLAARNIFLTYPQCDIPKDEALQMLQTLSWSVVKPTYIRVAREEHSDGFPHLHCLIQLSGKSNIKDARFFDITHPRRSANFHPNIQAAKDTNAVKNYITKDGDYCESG
# Method: as §1
# [4] = system: T4, Rep nickase domain of chickpea chlorotic dwarf virus
# T4 sequence (Rep 1-124, printed without the tag): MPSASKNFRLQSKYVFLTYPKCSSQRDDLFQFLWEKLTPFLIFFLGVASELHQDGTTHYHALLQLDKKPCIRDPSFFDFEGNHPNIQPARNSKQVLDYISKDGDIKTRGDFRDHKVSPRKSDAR
# Method: as §1
# [5] = system: T5, Rep nickase domain of faba bean necrotic yellows virus
# T5 sequence (Rep 1-98, printed without the tag): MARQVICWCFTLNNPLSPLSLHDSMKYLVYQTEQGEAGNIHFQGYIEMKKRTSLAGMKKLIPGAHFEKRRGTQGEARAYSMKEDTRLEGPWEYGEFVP
# Method: as §1
# [6] = system: T6, Rep nickase domain of maize striate mosaic virus
# T6 sequence (Rep 1-117, printed without the tag): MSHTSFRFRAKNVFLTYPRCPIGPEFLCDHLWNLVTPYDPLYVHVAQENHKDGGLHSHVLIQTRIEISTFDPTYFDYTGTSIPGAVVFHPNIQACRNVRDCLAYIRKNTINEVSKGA
# Method: as §1
# [7] = system: T7, Rep nickase domain of porcine circovirus 2
# T7 sequence (Rep 2-116, printed without the tag): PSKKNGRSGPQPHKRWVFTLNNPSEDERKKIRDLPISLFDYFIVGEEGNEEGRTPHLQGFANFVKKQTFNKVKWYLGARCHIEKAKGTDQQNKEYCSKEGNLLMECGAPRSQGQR
# Method: as §1
# [8] = system: T8, Rep nickase domain of tomato golden mosaic virus
# T8 sequence (Rep 1-124, printed without the tag): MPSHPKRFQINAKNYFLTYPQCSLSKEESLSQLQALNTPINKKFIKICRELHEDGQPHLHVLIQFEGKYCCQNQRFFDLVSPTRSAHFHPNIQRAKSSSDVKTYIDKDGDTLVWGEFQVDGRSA
# Method: as §1
# [9] = system: T9, Rep nickase domain of tomato yellow leaf curl virus
# T9 sequence (Rep 1-136, printed without the tag): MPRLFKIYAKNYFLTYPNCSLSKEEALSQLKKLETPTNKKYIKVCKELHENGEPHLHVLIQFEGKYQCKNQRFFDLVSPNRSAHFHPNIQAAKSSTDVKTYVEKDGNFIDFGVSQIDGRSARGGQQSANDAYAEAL
# Method: as §1
# [10] = system: T10, Rep nickase domain of wheat dwarf virus
# T10 sequence (Rep 1-137, printed without the tag): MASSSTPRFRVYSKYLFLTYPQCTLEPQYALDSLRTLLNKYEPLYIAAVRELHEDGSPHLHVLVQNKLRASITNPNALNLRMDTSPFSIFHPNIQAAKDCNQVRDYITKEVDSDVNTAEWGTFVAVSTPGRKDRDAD
# Method: as §1
Sequence,uncleaved DNA left (log2) [1],uncleaved DNA left (log2) [2],uncleaved DNA left (log2) [3],uncleaved DNA left (log2) [4],uncleaved DNA left (log2) [5],uncleaved DNA left (log2) [6],uncleaved DNA left (log2) [7],uncleaved DNA left (log2) [8],uncleaved DNA left (log2) [9],uncleaved DNA left (log2) [10]
ACCTAAA,0.0715,-0.0875,-0.127,-0.119,0.105,-0.93,0.0105,-0.0209,0.0736,0.0431
TCGAGAG,0.21,0.169,-0.109,0.0021,0.0729,-0.693,0.144,0.176,0.137,0.0651
ACTATTG,0.0205,-0.00263,-0.471,-0.235,0.0807,-1.08,0.208,-0.0242,0.0137,-0.021
CATAGGT,0.182,-0.0916,0.422,0.827,0.14,0.785,0.169,0.0365,-0.0633,0.045
CGCATTA,0.076,0.0858,-0.169,-0.798,0.0227,-0.539,0.00159,-0.0129,0.238,0.0512
TACTTGG,0.111,0.0203,-0.182,-0.325,0.0169,-0.755,0.124,0.00787,0.0641,0.0172
AGTTTTT,-3.09,-1.79,-0.073,-1.54,-0.52,0.111,-3.67,-0.0518,-0.0216,-0.0798
GGGCCCT,0.126,0.117,0.801,1.75,-0.0203,2.16,0.104,0.0665,0.0267,0.0746
AGCAAGA,0.0682,0.0958,0.0964,0.41,-0.0463,-0.138,-0.0416,0.0641,-0.0166,0.0833
CCCGCCC,-0.0797,-0.13,0.15,-0.296,0.00845,-0.204,-0.168,0.0332,-0.0265,-0.123
AACGGCT,-0.108,0.0521,-0.0164,0.265,-0.107,0.64,0.0992,0.0442,-0.077,-0.0347
CAGCTTA,0.203,0.0604,0.0461,-1.98,0.164,-0.113,-0.947,0.196,0.0803,0.117
TACAGGG,0.125,0.0735,-0.117,-0.191,0.177,-0.507,0.262,0.143,0.138,0.104
CATCGCC,0.135,0.0214,-0.224,-0.221,0.174,-0.784,0.187,0.159,0.0815,0.0848
GCTCGCG,-0.0837,-0.096,-0.54,0.823,-0.027,-0.0534,0.0294,-0.263,-0.039,-0.193
CATGTGC,-0.0756,-0.14,-0.719,-0.952,-0.0752,-1.16,0.119,-0.112,0.0427,-0.131
ATAGTTA,-0.0477,-0.14,-0.146,-1.29,0.074,-0.456,-0.12,0.0566,-0.065,0.0115
AGGTTAA,0.0398,0.102,-0.00504,0.107,-0.147,0.16,-0.0514,0.0273,-0.0097,0.0665
CCGCGCA,-0.0902,-0.137,-0.344,-0.404,0.0342,-0.596,-0.056,-0.0886,-0.0603,-0.00937
TCGATGT,-0.0232,-0.0812,-0.0476,0.0501,0.0429,0.0745,-0.108,-0.146,-0.13,-0.035
GTGAGCC,-0.0648,0.0756,0.133,0.856,-0.00998,1.63,0.0178,0.0451,0.0453,0.0787
CAGTAAC,0.067,0.0364,-0.265,-1.61,-0.166,-0.733,-2.07,0.0906,-0.00047,-0.0674
CGGTTTG,-0.0207,-0.00215,-0.0069,0.225,0.0757,0.174,0.0237,-0.00161,0.0101,0.128
CGACCAG,0.0945,0.0484,-0.0351,0.312,-0.0671,0.372,0.134,-0.112,0.0345,0.109
CTCACCT,-0.101,-0.0287,-0.143,-2.29,-0.017,-0.575,-0.405,-0.0632,0.00256,0.0413
TCAACGT,-0.00874,-0.0575,-0.051,-0.669,-0.038,-0.413,0.0563,-0.114,-0.0978,-0.117
TCCGCGT,0.0333,-0.053,-0.686,-0.379,0.0655,-0.726,0.133,-0.0439,0.0645,-0.111
TTTAAAC,-0.00426,-0.0504,0.191,-0.154,-0.0709,-0.239,0.0113,0.0238,-0.0569,-0.00157
CACTTTA,-0.242,-0.292,-0.3,-2.47,-0.15,-0.987,-2.69,-0.181,-0.0662,-0.0259
TTATCCG,-0.118,-0.155,-0.944,-0.204,-0.101,-1.11,0.0755,-0.125,-0.0769,-0.225
